Reference: patent publication US20250277783A1, “ENGINEERED CANNABINOID BIOMARKER(S), IN VITRO AND IN VIVO TESTING, AND RELATED APPLICATIONS” (Auxergen Inc., priority 2024, published 2025)

Key:
Format in all cases: cell-based
CB2 receptor [1] = target: T1, CB2 receptor (Homo sapiens, UniProt P34972); assay: Surface level of CB2 receptor labeled by AxCBM2 biomarker after CBD treatment
CB2 receptor [2] = target: T1, CB2 receptor; assay: Internal pool level of CB2 receptor labeled by AxCBM2 biomarker after CBD treatment; conditions: 2 μM CBD for 60 minutes vs control DMSO
MHC-1 = assay: Flow cytometry of MHC-1 recycling in human immune cell under CBD treatment; conditions: Jurkat cells, FIG. 9
Excerpt: FIG. 9 are examples of flow cytometry analysis of the level of surface, internalized, and recycled CB2 receptor using AxCBM2 biomarker and MHC-1 in human immune cell under cannabidiol (CBD) treatment.
FIG. 9 provides embodiments of the present invention's application of AxCBM2 biomarkers to detect suppresses the surface CB2 and MHC-1 receptor level (left), receptor recycling (right), and receptor accumulation in cytoplasm internally (middle).
Jurkat cells were fixed with 2% formaldehyde in PBS for 20 mins at room temperature. Incubate cells with Alexa647-conjugated AxCBM2 biomarkers (1 μg/ml) or 10 μ1/ml Alexa647-anti-MHC I (W6/32) antibody for 30 minutes. The mean fluorescent signal is measured for 20,000 events by FACSArray bioanalyzer (BD). FIG. 9 illustrates examples of use of the biomarker to find/utilize a secondary trafficking and pharmokokinetic pathway for the CB2 receptor (surface, internal, recycling). Because the CB2 receptor can go through a completely different pathway, it can affect how a cell differentiates. The kinetics of CB1 And CB2 are different, for example CB2 kinetics are faster. Because CBD inhibits immune response, embodiments of the present invention include tests that can determine the extent/level to which a particular cannabinoid-based drug can suppress the immune response (FIG. 9).

CB2 receptor [3] = target: T1, CB2 receptor; assay: Flow cytometry of CB2 receptor recycling with AxCBM2 biomarker in human immune cell under CBD treatment; design: Jurkat cells were fixed with 2% formaldehyde in PBS; endogenous in cells; host or cells: Jurkat; conditions: Jurkat cells, FIG. 9
CBl receptor = CBl receptor (Homo sapiens, UniProt P21554); assay: Co-incubation of CB1 inverse agonist/antagonist with CP-55940, surface biomarker-labeled CB receptor level
CB2 receptor [4] = target: T1, CB2 receptor; assay: Co-incubation of CB2 inverse agonist/antagonist with CP-55940, surface biomarker-labeled CB receptor level; conditions: co-incubation with CP-55940, parallel shift; read-out: antagonist dissociation constant (Kb), CB2

T1 sequence (P34972 whole entry): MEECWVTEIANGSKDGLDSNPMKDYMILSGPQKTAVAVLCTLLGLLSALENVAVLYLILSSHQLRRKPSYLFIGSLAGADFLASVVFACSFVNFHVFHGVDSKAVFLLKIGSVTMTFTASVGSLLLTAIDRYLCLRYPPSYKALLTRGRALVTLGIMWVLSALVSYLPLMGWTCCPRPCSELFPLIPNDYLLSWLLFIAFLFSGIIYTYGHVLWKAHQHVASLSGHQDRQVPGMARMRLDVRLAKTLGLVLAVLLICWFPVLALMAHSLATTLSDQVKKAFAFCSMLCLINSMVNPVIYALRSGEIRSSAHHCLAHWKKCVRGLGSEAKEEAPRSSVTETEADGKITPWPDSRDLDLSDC
Chain of UniProt P21554 (P21554 whole entry): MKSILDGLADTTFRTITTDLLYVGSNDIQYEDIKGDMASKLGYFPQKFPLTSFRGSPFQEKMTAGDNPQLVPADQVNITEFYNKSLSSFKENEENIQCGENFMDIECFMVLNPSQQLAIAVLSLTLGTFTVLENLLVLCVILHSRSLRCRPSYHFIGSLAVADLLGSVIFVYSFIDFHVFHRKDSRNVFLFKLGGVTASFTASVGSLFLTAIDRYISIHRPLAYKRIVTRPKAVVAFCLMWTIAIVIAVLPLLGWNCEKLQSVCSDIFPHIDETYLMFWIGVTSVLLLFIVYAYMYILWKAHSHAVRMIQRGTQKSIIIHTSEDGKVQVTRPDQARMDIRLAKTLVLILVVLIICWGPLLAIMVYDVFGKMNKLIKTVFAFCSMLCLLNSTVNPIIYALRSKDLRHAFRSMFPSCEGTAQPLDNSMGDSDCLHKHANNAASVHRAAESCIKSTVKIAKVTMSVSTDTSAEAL

C=C(C)[C@@H]1CCC(C)=C[C@H]1c1c(O)cc(CCCCC)cc1O [CBD, cannabidiol]
surface level of CB2 receptor, % of the control (CB2 receptor [1]; 2 μM CBD for 60 minutes vs control DMSO): 18.3%
half-life (t1/2) of AxCBM2 biomarker-labeled CB2 receptor internalization (CB2 receptor [1]; time course of surface CB2 receptor level, CBD-treated cells): ~5.3 min
internal pool level of CB2 receptor (CB2 receptor [2]): highly accumulates in vacuole-like endosome
MHC-1 recycling (MHC-1): suppress
CB2 receptor recycling (CB2 receptor [3]): suppress

Cc1c(C(=O)NN2CCOCC2)nn(-c2ccc(Cl)cc2Cl)c1-c1ccc(I)cc1 [AM-281]
change in IMAX of CP-55940 on co-incubation (CBl receptor; co-incubation with CP-55940): no change in IMAX
Kb (CBl receptor; co-incubation with CP-55940, surmountable antagonism, read-out: antagonist dissociation constant (Kb), CB1): 149 nM

COc1ccc(C(=O)c2c(C)n(CCN3CCOCC3)c3cc(I)ccc23)cc1 [AM-630]
Kb (CB2 receptor [4]): 57.5 nM
